Measured values taken from the supplement of paper PMC12067093, “Discovery and optimisation of a covalent ligand for TRIM25 and its application to targeted protein ubiquitination” (Chemical Science, 2025).
Targets with the largest changes are over-represented here; the source holds about 21,000 in all.

Compound: CC1Cc2ccccc2N1C(=O)C1CCCN(C1)C(=O)CCl (mixture of isomers) [TRIM25 ligand 11 (diastereomer mixture)]
Assay: probe-labelled cysteine peptide fold change vs DMSO (competition) (log2 fold change); higher = less target engagement (more negative = stronger competition)
Conditions: THP-1, incubation time: 4 h
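Also: competitive chemoproteomic profiling in live THP-1 cells with an iodoacetamide desthiobiotin (IA-DTB) probe, comparing probe-labelled peptide intensities in compound-treated cells against DMSO-treated controls.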

Target	probe-labelled cysteine peptide fold change (10 µM)	probe-labelled cysteine peptide fold change (50 µM)
HIKESHI_Q53FT3_4_MFGCLVAGR (UniProt Q53FT3)	-0.101	0.2
HSD17B7_P56937_32_LLAEDDELHLCLACR (UniProt P56937)	-0.00354	0.135
GOLGA4_Q13439_1085_ILLFGCEK (UniProt Q13439)	-0.177	–
HNRNPU_Q00839_450+453_PLFPHVLCHNCAVEFNFGQK (UniProt Q00839)	0.0361	0.157
HECTD1_Q9ULT8_2086_QLYFTCTAFGASR (UniProt Q9ULT8)	0.0366	0.19
HNRNPU_Q00839_594_KMCLFAGFQR (UniProt Q00839)	-0.59	-0.549
HK2_P52789_823_EVCTVVAR (UniProt P52789)	-0.0265	0.0669
GIT2_Q14161_34+35_GTFLCDECCSVHR (UniProt Q14161)	-0.155	-0.565
GARS_P41250_471_SCYDLSCHAR (UniProt P41250)	0.0402	-0.161
HEATR1_Q9H583_1942_LLTFYNLADCIAEK (UniProt Q9H583)	-0.106	0.2
GRK2_P25098_154_QVPPDLFQPYIEEICQNLR (UniProt P25098)	0.263	-0.119
GPSM3_Q9Y4H4_116_ATFYTPQNPSSLAPAPLRPLEDREQLYSTILSHQCQR (UniProt Q9Y4H4)	-0.1	-0.12
HSD17B11_Q8NBQ5_215+217_TTCLCPNFVNTGFIK (UniProt Q8NBQ5)	0.0555	0.0766
GANAB_Q14697_502_DGSDYEGWCWPGSAGYPDFTNPTMR (UniProt Q14697)	-0.0552	-0.169
HPF1_Q9NWY4_60_FCEELDPEK (UniProt Q9NWY4)	0.0355	0.151
GPC3_P51654_72_GPTCCSR (UniProt P51654)	-0.00502	0.159
GAR1_Q9NY12_86_VVLLGEFLHPCEDDIVCK (UniProt Q9NY12)	0.0888	-0.0822
HACL1_Q9UJ83_261_GVVPDNHPYCVGAAR (UniProt Q9UJ83)	-0.0211	-0.0859
GNA15_P30679_345_LFSHYTCATDTQNIR (UniProt P30679)	-0.0387	0.226
HAUS3_Q68CZ6_123_CQLMASVTSHK (UniProt Q68CZ6)	-0.0299	0.225
HLA-DRA_P01903_188_FHYLPFLPSTEDVYDCR	0.221	0.324

Target	probe-labelled cysteine peptide fold change (10 µM)	probe-labelled cysteine peptide fold change (50 µM)
GGA2_Q9UJY4_93_EALYALTVLEMCMNHCGEK (UniProt Q9UJY4)	0.045	0.109
GNPAT_O15228_478_VDSGDSEVVDGLMLQHITLLMCSAYR (UniProt O15228)	0.238	0.274
GYS1_P13807_564+575_SLDDSCSQLTSFLYSFCQQSR (UniProt P13807)	-0.386	-0.281
GATM_P50440_324_DPNPMHIDATFNIIGPGIVLSNPDRPCHQIDLFK (UniProt P50440)	0.214	0.447
HAUS3_Q68CZ6_3_SCGNEFVETLK (UniProt Q68CZ6)	0.0288	0.169
GNPTG_Q9UJJ9_245_TPEENEPTQLEGGPDSLGFETLENCR (UniProt Q9UJJ9)	0.0339	0.0562
GEMIN2_O14893_264_LLVDSKDDERVPALNLLICLVSR (UniProt O14893)	-0.151	-0.204
GATD1_Q8NB37_179_DSGACFSASEPDAVHVVLDR (UniProt Q8NB37)	0.0266	-0.265
HERPUD1_Q15011_86_HVLHLVCNVK (UniProt Q15011)	0.109	0.551
HNRNPC_P07910_46_IVGCSVHK (UniProt P07910)	0.221	0.132
HSD17B11_Q8NBQ5_94_VHTFVVDCSNR (UniProt Q8NBQ5)	0.0849	0.11
GCC2_Q8IWJ2_399_EEQGCVIEK (UniProt Q8IWJ2)	-0.21	-0.0979
GMPPA_Q96IJ6_118_DQILAGSPEAFFVLNADVCSDFPLSAMLEAHRR (UniProt Q96IJ6)	0.715	0.22
GCLM_P48507_194_PNSNQVNLASCCVMPPDLTAFAK (UniProt P48507)	0.599	0.0964
GSTK1_Q9Y2Q3_176_ETTEAACR (UniProt Q9Y2Q3)	-0.0478	-0.177
HGH1_Q9BTY7_368_GMENLLEVQVPEDVEQQLQQLDCR (UniProt Q9BTY7)	-0.0716	-0.143
HECTD4_Q9Y4D8_2036_DGAWTNPVGTCLFHNNGR (UniProt Q9Y4D8)	0.11	0.235
HRAS_P01112_80_TGEGFLCVFAINNTK (UniProt P01112)	-0.0742	0.0625
HK3_P52790_840_AAQLCGAGVAAVVEK (UniProt P52790)	0.0352	-0.034
HK2_P52789_438_LVPGCDVR (UniProt P52789)	-0.0817	-0.0382
